Source: the GPR68 mutational scans of Howard et al. (2025)
Scores whose standard error is large were omitted. The source holds two more conditions with little spread; they are left out. In variant names, del marks residues removed and ins residues inserted between the two positions. For some of these results: The concentration of ogerin is not given here.

B1: GPR68, Q15743 (parent)
chain: MGNITADNSSMSCTIDHTIHQTLAPVVYVTVLVVGFPANCLSLYFGYLQIKARNELGVYLCNLTVADLFYICSLPFWLQYVLQHDNWSHGDLSCQVCGILLYENIYISVGFLCCISVDRYLAVAHPFRFHQFRTLKAAVGVSVVIWAKELLTSIYFLMHEEVIEDENQHRVCFEHYPIQAWQRAINYYRFLVGFLFPICLLLASYQGILRAVRRSHGTQKSRKDQIQRLVLSTVVIFLACFLPYHVLLLVRSVWEASCDFAKGVFNAYHFSLLLTSFNCVADPVLYCFVSETTHRDLARLRGACLAFLTCSRTGRAREAYPLGAPEASGKSGAQGEEPELLTKLHPAFQTPNSPGSGGFPTGRLA

Legend:
[1] = variants of: B1; experiment: cAMP reporter score (Enrich2 score, wild type = 0); higher = more signal; HEK293T, FACS bins
[2] = variants of: B1; experiment: surface expression score (Enrich2 score, wild type = 0); higher = more signal; HEK293T, FACS bins

| Variant | cAMP reporter score ([1]; pH 5.5) | cAMP reporter score ([1]; pH 6) | cAMP reporter score ([1]; pH 6, modulator: ogerin) | cAMP reporter score ([1]; pH 6.5, modulator: ogerin) | surface expression score [2] |
| --- | --- | --- | --- | --- | --- |
| L231F | -0.324 | 0.568 | -0.414 | 0.228 | -0.635 |
| L231G | 0.2 | -0.774 | -0.546 | -0.857 | -0.655 |
| L231H | 1.18 | 0.741 | 0.464 | 0.065 | -0.521 |
| L231I | 0.645 |  | 0.516 | 2.87 | -1.54 |
| L231K | -0.087 | -0.815 | -0.595 | -1.09 | -0.996 |
| L231P | -0.764 | -0.656 | -0.914 | -0.754 | -0.936 |
| L231Q | -1.21 | 0.047 |  | -0.159 | -1.93 |
| L231R | -0.724 | -1.57 | -1.31 | -0.665 | -1.93 |
| L231S | -0.41 | -0.689 |  |  | -0.388 |
| L231T | -1.04 | -0.089 | -0.924 | -0.298 | -1.46 |
| L231V | -0.667 | 0.533 | -0.764 | 0.127 | -1.8 |
| L231W | 0.303 |  |  | 2.11 |  |
| L231Y | -0.481 |  | -0.341 | 1.55 | -2.44 |
| L231_S232insGS | -1.85 | -0.479 | -0.86 | -1.03 | -2.39 |
| S232_T233del | -1.08 | -0.658 | -1.63 | -1.02 | -1.61 |
| S232_T233insG | -1.69 | -1.17 | -1.88 |  |  |
| S232_T233insGS | -1.59 | -0.792 |  | -1.07 |  |
| S232del | -1.57 | -0.237 | -1.11 | -0.67 | -2.04 |
| T233_V235del | -0.931 | -2.01 | -1.99 | -0.788 | -3.31 |
| V234A | -0.015 | 0.122 | -1.06 | -1.22 | -0.072 |
| V234C | 1.27 |  | 0.28 |  | -0.302 |
| V234D | -1.14 | 1.54 | -1.37 | -0.714 | -2.72 |
| V234E | -0.566 | -1.58 | -0.873 | -1.61 | -2.41 |

| Variant | cAMP reporter score ([1]; pH 5.5) | cAMP reporter score ([1]; pH 6) | cAMP reporter score ([1]; pH 6, modulator: ogerin) | cAMP reporter score ([1]; pH 6.5, modulator: ogerin) | surface expression score [2] |
| --- | --- | --- | --- | --- | --- |
| V234F | -0.415 | -1.66 | -0.312 | 0.859 | -0.15 |
| V234G | 0.107 | 0.069 |  |  | -0.668 |
| V234H | -1.46 | -1.72 | -0.97 | -1.72 | -2.21 |
| V234I | 0.443 | 0.523 | 0.893 | 0.031 | 1.67 |
| V234K | -0.945 | -1.94 |  | -1.59 | -1.16 |
| V234M | -0.167 | -0.686 | -0.514 | -0.494 | -0.117 |
| V234N | -0.625 | -0.171 | -0.822 | 0.122 | -0.596 |
| V234P | -0.639 | -1.35 | -0.922 | -0.211 | -1.32 |
| V234Q | 0.853 | -1 |  | -0.199 | -1.16 |
| V234R | -1.81 | -2.29 | -1.01 | -0.81 | -3.41 |
| V234S | -0.015 | -1.48 | -0.48 |  | -1.4 |
| V234T | 0.111 | 0.799 | -1.01 | 0.218 | -0.365 |
| V234W | 0.299 | -0.505 | 0.09 | -0.682 | -1.81 |
| V234Y | 0.761 | 1.27 | 1.09 | -0.068 | -1.62 |
| V234del | -1.69 |  | -3 | -1.14 | -2.69 |
| V235_I236del | -2.39 | -0.711 |  | -1.91 | -3.72 |
| V235_I236insGS | -1.49 | -0.78 | -1.35 | -1.12 | -2.98 |
| V235_I236insGSG | -2.24 | -0.81 | -1.19 | -2.17 | -4.08 |
| I236C | -0.186 | 4.39 |  |  | -1.89 |
| I236D | -1.63 | -1.03 | -1.27 | -0.518 | -2.31 |
| I236E | -0.9 | -0.409 | -0.177 | -1.87 |  |
| I236F | 0.061 | 3.15 | -0.534 | -0.265 |  |
| I236G | -1.34 |  | 0.097 | -0.271 | -1.61 |

| Variant | cAMP reporter score ([1]; pH 5.5) | cAMP reporter score ([1]; pH 6) | cAMP reporter score ([1]; pH 6, modulator: ogerin) | cAMP reporter score ([1]; pH 6.5, modulator: ogerin) | surface expression score [2] |
| --- | --- | --- | --- | --- | --- |
| I236H | -0.482 |  | -1.47 |  |  |
| I236K | -1.29 |  | -2.62 | -1.5 | -1.4 |
| I236L | 1.1 | 1.03 | 1.14 | 2.03 | 0.154 |
| I236M | -0.336 | 1.14 | 0.061 | 1.92 | -2.76 |
| I236N | -1.14 | -1.89 |  |  | -2.9 |
| I236P | -0.943 |  |  | -1.59 |  |
| I236Q | -1.52 |  | -0.656 | -0.68 | -1.73 |
| I236R | -1.3 | -2.68 |  | -1.41 | -3.12 |
| I236S | -0.404 | 3.68 | 0.14 | 1.94 | -1.09 |
| I236T | -0.483 | 0.705 | -0.553 | 0.399 | -1.27 |
| I236V | -0.315 | 0.235 | -0.353 | 0.228 | -0.383 |
| I236Y | -1.95 | -1.98 |  | -0.515 | -1.71 |
| I236_F237insG | -1.95 |  | -1.2 | -0.633 |  |
| I236_F237insGS | 0.098 | -1.23 | -1.39 | -1 | -2.31 |
| I236_F237insGSG | -1.02 | -0.506 | -1 | -0.62 | -2.63 |
| F237del | -1.59 | -0.967 | -1.37 | -0.763 | -1.98 |
| L238A | 0.809 | -0.755 | 1.03 | 0.617 | -0.007 |
| L238C | 0.274 |  | -0.472 | -0.461 |  |
| L238D | -1.52 |  | -1.58 | -0.721 | -2.73 |
| L238E | -1.41 | -0.848 | -1.59 | -1.71 | -2.44 |
| L238F | -0.309 | -0.672 | -0.692 | -0.653 | -0.419 |
